The densities may have been worked out from excess volumes.
Experiment: xn = mol fraction of the nth substance listed
Conditions: 101 kPa

CCCC[n+]1ccn(C)c1.F[B-](F)(F)F + O
mass density [kg/m3]
Conditions	283.15 K	293.15 K	303.15 K	313.15 K	323.15 K	343.15 K	353.15 K	363.15 K
x2 = 0	1212	–	–	1190.5	1183.4	1169.5	1162.6	1155.8
x2 = 0.034	1211	–	–	1189.4	1182.4	1168.4	1161.6	–
x2 = 0.0615	1210.1	–	–	–	–	1167.5	1160.6	–
x2 = 0.1135	1208.5	1201.2	1194	–	1179.8	1165.8	–	1152
x2 = 0.2063	1205.4	–	–	–	–	1162.6	1155.6	1148.7
x2 = 0.2802	–	1194.9	1187.6	–	–	1159.2	1152.2	–
x2 = 0.3977	1195.9	–	–	–	–	–	–	1138.3
